Experimental findings from PubChem BioAssay AID485344 (National Center for Advancing Translational Sciences (NCATS), 2010) are described below.

In all, about 340,000 compounds went through this assay and about 6,900 (2%) were called active. Rule as the data show it: active = inhibition above about 30%; inactive = below that, where a call was filed. The list shows a part of the results, in another mix than the full data. Entries without a call were filed so in the source.

The target in this assay is D(2) dopamine receptor (Homo sapiens) (UniProt P14416). Kind of assay: HTS Assay for Allosteric Antagonists of the Human D2 Dopamine Receptor: Primary Screen for Antagonists. Also: 0% is about no effect. Conditions: HEK293 TREx D2 cells, calcium flux, dopamine EC80; at 10 µM; stronger effect = higher value. In short, it runs like this: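 Measurement of antagonist activity uses fluorescent calcium dye in inducible HEK293 T-REx D2 cells: 10 s baseline, compound addition with 180 s read, EC80 dopamine addition with a further 180 s read.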
Sequence of UniProt P14416 (P14416 whole entry, looked up): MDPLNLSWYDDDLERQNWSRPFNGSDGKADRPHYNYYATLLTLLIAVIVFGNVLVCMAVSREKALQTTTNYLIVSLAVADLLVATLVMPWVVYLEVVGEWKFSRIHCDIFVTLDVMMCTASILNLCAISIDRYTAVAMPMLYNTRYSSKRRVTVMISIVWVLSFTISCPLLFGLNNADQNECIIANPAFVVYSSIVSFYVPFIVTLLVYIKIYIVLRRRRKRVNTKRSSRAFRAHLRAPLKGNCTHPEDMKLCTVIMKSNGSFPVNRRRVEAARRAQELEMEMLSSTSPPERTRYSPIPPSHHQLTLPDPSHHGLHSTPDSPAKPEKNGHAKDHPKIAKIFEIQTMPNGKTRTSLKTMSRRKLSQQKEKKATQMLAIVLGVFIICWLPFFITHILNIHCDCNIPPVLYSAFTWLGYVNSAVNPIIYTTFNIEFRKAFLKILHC
Regarding `Cc1cccc(NC(=O)c2cc3c(=O)n4cccc(C)c4nc3s2)c1C`, the inhibition is -11.8%. With `CC(C)CN(CCCNC(=O)CN1N=C(c2ccc(Cl)cc2)CCC1=O)CC(C)C`, the inhibition amounted to 16%. Next, `CCCn1c(CNC(=O)c2ccc(F)cc2)nc2ccccc21`: -12.4%; `Cc1ccc2oc(-c3ccc(C)c(NC(=O)c4ccc(N5CCC(C)CC5)c([N+](=O)[O-])c4)c3)nc2c1`: -10.8%. To `O=C(CCCN1C(=O)C(c2ccccc2)Oc2cccnc21)Nc1ccccc1C(F)(F)F` (stereo unspecified) belongs -24.5%; to `CC(C)C(=O)Nc1ccccc1OCc1cc(=O)n2ccccc2n1`, -9.57%. Regarding `CCC(Oc1ccccc1F)C(=O)N1CCC(c2nc3ccccc3s2)CC1` (stereo unspecified), the inhibition is 3.14%.

On to `COC(=O)C(CCSC)NC(=O)c1cc2c(n(-c3ccc(Cl)cc3)c1=O)CCCC2=O` (stereo unspecified), for which the inhibition came to 12.7%.

For the compound `O=C(NC(=O)c1ccccc1)Nc1ccc(-c2cc(C(F)(F)F)nn2-c2ccccc2)cc1`, the inhibition worked out at 5.4%. Next, `CCOc1ccc(NC(=O)C2CCCN(c3ccc(Sc4ccc(C)cc4)nn3)C2)cc1` (stereo unspecified): 1.19%. Next, `COc1ccc(Cl)cc1NC(=O)C1CCCN(c2ncnc3onc(C)c23)C1` (stereo unspecified): -1.38%. As for `CCOc1ccccc1CNC(=O)c1c(C)oc2ncnc(N3CCOCC3)c12`, the inhibition was -11.1%.

For `CCOc1ccc(NC(=O)CSc2ccc(-c3sc(-c4ccccc4)nc3C)nn2)cc1`, the inhibition was 10.6%. Consider `CN(CC1CCN(CCc2cccc(C(F)(F)F)c2)CC1)C(=O)c1ccc(F)cc1`, for which the inhibition is active: 58.3%.

In the case of `CCOC(=O)c1oc2ccc(S(=O)(=O)n3nc(-c4cc(OC)c(OC)c(OC)c4)cc3N)cc2c1C`, the inhibition was 11.3%.

Consider `CC1CCN(CCc2nc3cc(NS(=O)(=O)c4ccccc4)ccc3n2C)CC1`, for which the inhibition is active: 30.3%. To `Cc1ccccc1C(=O)NC1(C(F)(F)F)N=C(c2ccccc2)N(C2CCCCC2)C1=O` (stereo unspecified) belongs 0.164%; to `Cc1ccccc1-c1nc(CN(Cc2c(C)nn(C)c2C)C2CC2)c(C)o1`, active: 30.5%. To `COC(=O)c1ccc(C(=O)OC)c(NC(=O)CSCc2ccccc2Br)c1` belongs active: 44.5%; to `Cc1ccc(C)c(S(=O)(=O)c2nnn3c2nc(NC(C)C)c2sccc23)c1`, 9.05%.

Turning to `O=C(O)c1ccc2nc(-c3cc4cccc(O)c4oc3=O)[nH]c2c1`, the inhibition amounted to 14.6%.

Turning to `NS(=O)(=O)c1ccc(NC(=O)CN2C(=O)COc3ccc(Cl)cc32)cc1`, the inhibition amounted to 0.616%. To `CCc1ccccc1Nc1nn2c(=O)c3ccc(C(=O)NCc4ccccc4OC)cc3nc2s1` belongs 4%; to `CCOC(=O)c1c(C)[nH]c(C)c1S(=O)(=O)N1CCCC(C(=O)Nc2ccc(C)cn2)C1` (stereo unspecified), -0.981%; to `CCOc1ccc(Nc2ncnc3c2nc2n3CCCC2)cc1`, 9.97%. To `COc1ccccc1Cn1cc(C(=O)c2ccc(C)cc2)c(=O)c2cc(C)ccc21` belongs 10.7%; to `Cc1ccc(-n2nc(CO)c(C(=O)NCCCc3ccccc3)n2)cc1C`, 2.41%. Next, `COc1ccccc1CCNC(=O)C1CCN(c2nnc(-n3cccc3CNc3ccc(C)cc3)s2)CC1`: -2.53%. Take `Cc1c(C(=O)N(Cc2ccc(N(C)C)cc2)CC2CCCO2)oc2ccc(Cl)cc12` (stereo unspecified): the inhibition was -5.27%. Turning to `CCOc1ccc(Nc2nc3cc(Cl)c(Cl)cc3nc2-n2nc(C)cc2C)cc1`, the inhibition came to 10.5%.

In the case of `COc1ccc(Cl)cc1NC(=O)c1cn(C2CCCCC2)c(=O)c2c1c1ccccc1n2C`, the inhibition is 3.21%.

For `COc1ccc(-c2nc(CS(=O)(=O)CC(=O)NCc3cccc(F)c3)c(C)o2)cc1`, the inhibition was active: 54.3%. To `COc1ccc(N2CCN(c3csc4ccc(Cl)cc4c3=O)CC2)cc1` belongs 14.1%; to `O=C(O)Cc1ccc(NC2(c3ccccc3)C(=O)c3ccccc3C2=O)cc1`, 3.46%. Next, `COC(=O)c1ccccc1NC(=O)C1=C(C)C(=O)OC12CCCCCC2`: 18%; `COc1ccc(C(=O)Nc2ccccc2SCc2cc(=O)c3cccc(C)c3[nH]2)cc1`: -3.84%; `O=C(O)Cc1sc(Nc2ccccc2)nc1-c1ccccc1`: 9.41%.

Turning to `CCN(CC)c1ccc2c(c1)oc(=O)c1c(Cl)cc(=O)oc12`, the inhibition is active: 51.4%.

`COc1ccc(S(=O)(=O)NCCS(=O)(=O)N2CCN(c3ccccc3)CC2)cc1C`: the inhibition is 19.5%.

In the case of `COc1ccc(Br)cc1CNC(=O)CCSCc1ccc(C)cc1`, the inhibition was -22.5%. To `O=C(Cn1cc(S(=O)(=O)c2ccccc2)c(=O)c2cc3c(cc21)OCO3)Nc1ccc(Cl)cc1` belongs -4.24%. Next, `Cc1ccc(S(=O)(=O)N2CCN(Cc3nc4ccc(C)cc4o3)CC2)cc1`: -4.83%; `CCNc1cc(N2CCN(C3CCCCC3)CC2)c2noc3c2c1C(=O)c1ccccc1-3`: -9.75%; `CCOC(=O)CSc1nc2ccccc2c(=O)n1-c1cccc(C)c1`: -14.1%. Next, `CSc1ccc(CCNC(=O)c2ccc(-c3nc(COc4ccc(C)cc4)c(C)o3)cc2)cc1`: 5.67%; `COc1ccc(NC(=O)CCc2nnc3n(Cc4ccccc4Cl)c(=O)c4ccccc4n23)cc1`: -1.67%; `Cc1ccc2nc(-c3ccc(Cl)c(NC(=O)COc4ccc(C(C)C)cc4)c3)oc2c1`: 1.31%.

In the case of `Cc1ccc(C)c(NC(=O)C2CCCN(S(=O)(=O)c3cn(C)cn3)C2)c1` (stereo unspecified), the inhibition was 6.52%.

As for `COc1ccc(N2CCN(Cc3cccn3-c3nnc(N4CCN(C5CCCCC5)CC4)s3)CC2)cc1`, the inhibition was determined as 16.1%. Turning to `Cc1nc(SC(C)C(=O)Nc2ccccc2Cl)cc(-c2ccccc2)n1` (stereo unspecified), the inhibition is -1.09%. With `CCn1cc(C(=O)N2CCN(c3cc(C)ccc3C)CC2)c(=O)c2cc(S(=O)(=O)N3CCCCC3)ccc21`, the inhibition is -1.79%. To `CCOc1ccc(-n2nc(CO)c(C(=O)NCc3cccs3)n2)cc1` belongs 12%; to `COC(=O)c1ccc(CSc2ccccc2C)o1`, active: 34.1%.

With `CC(Oc1ccc(Br)cc1)C(=O)Nc1ncn[nH]1` (stereo unspecified), the inhibition was found to be 18%. `Cc1cc(N2CCN(c3cccc(C(F)(F)F)c3)CC2)n2nc(-c3ccccc3)nc2n1`: the inhibition was -1.56%. To `CCc1cccc(C)c1NC(=O)CCn1c(=O)c2cccn2c2ccccc21` belongs -6.12%; to `CCCN1C2CCCC1CC(NC(=O)c1ccccc1)C2` (stereo unspecified), active: 30.1%. Next, `Cc1ccc(NS(=O)(=O)c2cc3[nH]c(=O)c(=O)[nH]c3cc2C)cc1Cl`: 7.17%; `CCOc1ccc(C(=O)Nc2c(C(=O)N3CCN(c4ccccc4F)CC3)oc3ccccc23)cc1`: 1.66%. Next, `Cc1ccc(NC(=O)N2CC3CCCN3c3ccccc32)c(C)c1` (stereo unspecified): 13.8%. Regarding `Cc1ccc(-c2cc(C(=O)N(Cc3ccc(C(C)(C)C)cc3)Cc3ccco3)no2)cc1`, the inhibition is -5.29%.
